The campaign covered roughly 150,000 compounds. About 540 (0.36%) showed an effect of 50% or more. This is one part of the list.

The experiment has as its system Plasmodium falciparum. The experiment can be described thus: Primary screen in NF54 nanoGlo assay, in single point, at 2uM, 72h; a lower Z score goes with more inhibition. The class given is functional, Erythrocyte. To be noted: timepoint 72 hour.
For `O=C(COc1cccc(Cl)c1)N1CCC2(CC1)OCCO2`, the “% Inhibition” value is -5% and the Z score is given as 0.77.
In the case of `CC(C)NC(=O)c1cc(N2CCN3CCC[C@H]3C2)ccn1`, the “% Inhibition” value was -3% and the Z score is 0.6.
For the compound `COC1CC2CCC(C1)N2Cc1cnoc1C` (stereo not drawn), the “% Inhibition” value is reported as 9% and the Z score is given as -1.27.
The corresponding values for `Brc1cncc(CNC23CCCCC2C3)c1` (stereo not drawn) are -7% and 1.14.
The corresponding values for `Cn1c(=O)oc2c(C(=O)Nc3cccnc3-c3ccccc3)cccc21` are -10% and 1.87.
The corresponding values for `COc1ccccc1CCCNC(=O)N1CCN([C@H]2CN3CCC2CC3)CC1` are -15% and 1.98.
As for `c1csc(O[C@H]2CN3CCC2CC3)n1`, the “% Inhibition” value is -1% and the Z score stood at 0.1.
Turning to `O=c1c2c([nH]c3c(F)ccc(F)c13)CCNC2`, the “% Inhibition” value amounted to 6% and the Z score was -1.16.
For `O=c1[nH]c2ccccc2cc1CN1CCO[C@H]2COCC[C@H]21`, in that order: -8% and 1.36.
The corresponding values for `COCCCN1CC2CCC1CN2CCCOC` are 6% and -0.65.
`Cc1cccc(OCC(=O)N2C[C@H]3COc4ccccc4C[C@@]3(C(=O)O)C2)c1`: the “% Inhibition” value is reported as -6% and the Z score was 0.75.
Turning to `NC(=O)c1ccc(N2C(=O)NC(=O)C3(Cc4ccccc4N4CCOCC43)C2=O)cc1` (stereo not drawn), the “% Inhibition” value was -44% and the Z score came out at 5.18.
The corresponding values for `C[C@@H](Cc1cnccn1)N(C)Cc1ccc(-c2nn[nH]n2)cc1` are -12% and 2.02.
For `CN(C)c1ccc(-c2noc([C@@]34CCCC[C@@H]3NCC4)n2)nc1`, in that order: -9% and 1.83.
For `CCNC(=O)N1CC2CN(C(C)C)CC(C1)O2`, the “% Inhibition” value is given as -7% and the Z score is 0.9.
The corresponding values for `Cc1nc(-c2ccccc2)cc([C@H]2CN3CC[C@H]2C[C@@H]3CNC2CCN(C)CC2)n1` are 18% and -2.89.
With `N#Cc1cnc(O[C@H]2CN3CCC2CC3)c(Cl)c1`, the “% Inhibition” value amounted to 5% and the Z score is reported as -0.7.
In the case of `FC(F)(F)C1CCCC(NCC2COC3(CCOCC3)O2)C1` (stereo not drawn), the “% Inhibition” value was -11% and the Z score came to 1.45.
As for `COc1ccccc1[C@@H]1CN(c2ncnc3[nH]cnc23)[C@@H]2C3CCN(CC3)[C@@H]21`, the “% Inhibition” value is recorded as -4% and the Z score is on record as 0.75.
The corresponding values for `COCCCNC(=O)c1c(CC2CCCC2)n(Cc2cccnc2)c(C)cc1=O` are 7% and -1.26.
On to `Cc1cc(C)nc(O[C@H]2CN3CCC2CC3)n1`, for which the “% Inhibition” value is -7% and the Z score worked out at 0.99.
With `Fc1ccc(N2CCC[C@H]2c2cccnc2)nc1`, the “% Inhibition” value came to 3% and the Z score was -0.62.
Regarding `CC1(C)C[C@@H]2C[C@@](C)(CN2Cc2cnc(NCC(=O)O)nc2)C1`, the “% Inhibition” value is -7% and the Z score is 0.68.
With `O=C(Cc1c(F)cccc1Cl)NCC1CCN(C(=O)Oc2ccccc2)CC1`, the “% Inhibition” value was -6% and the Z score was 0.98.

As a reminder, the % Inhibition is the change of the read-out against control, counted positive when it falls.

The values above are taken from ChEMBL document CHEMBL4888484, “Replenishing the malaria drug discovery pipeline: Screening and hit evaluation of the MMV Hit Generation Library 1 (HGL1) against asexual blood stage Plasmodium falciparum ,using a nano luciferase reporter read-out” (2022).
